Measurements as given in the supplement of paper PMC11876631.
± gives the standard deviation of the averaged measurements. Laboratory Escherichia coli strains with one amino-acid change in an essential protein, pooled on minimal glucose agar with carbenicillin or gentamicin at twice the control MIC (plus kanamycin and chloramphenicol for the plasmids), 48 h. Fold change of barcode share against drug-free plates; higher = less susceptible. Active = above 20 in both replicates (the paper's putatively resistant). '<' = one read or none on drug, '>' = one read or none on a drug-free plate. Shares are relative, so most strains fall below 1 when a few take over. Listed are strains with at least 15 reads on both drug-free plates, and hits; most hits rest on fewer reference reads. Replicate rank correlation about 0.5. Edits are read from barcodes.

B1: fabG I134A (protein)
chain: MNFEGKIALVTGASRGIGRAIAETLAARGAKVIGTATSENGAQAISDYLGANGKGLMLNVTDPASIESVLEKIRAEFGEVDILVNNAGITRDNLLMRMKDEEWNDIIETNLSSVFRLSKAVMRAMMKKRHGRIATIGSVVGTMGNGGQANYAAAKAGLIGFSKSLAREVASRGITVNVVAPGFIETDMTRALSDDQRAGILAQVPAGRLGGAQEIANAVAFLASDEAAYITGETLHVNGGMYMV
B2: fabG V179A (protein)
chain: MNFEGKIALVTGASRGIGRAIAETLAARGAKVIGTATSENGAQAISDYLGANGKGLMLNVTDPASIESVLEKIRAEFGEVDILVNNAGITRDNLLMRMKDEEWNDIIETNLSSVFRLSKAVMRAMMKKRHGRIITIGSVVGTMGNGGQANYAAAKAGLIGFSKSLAREVASRGITVNVAAPGFIETDMTRALSDDQRAGILAQVPAGRLGGAQEIANAVAFLASDEAAYITGETLHVNGGMYMV
B3: fabG L222Q (protein)
chain: MNFEGKIALVTGASRGIGRAIAETLAARGAKVIGTATSENGAQAISDYLGANGKGLMLNVTDPASIESVLEKIRAEFGEVDILVNNAGITRDNLLMRMKDEEWNDIIETNLSSVFRLSKAVMRAMMKKRHGRIITIGSVVGTMGNGGQANYAAAKAGLIGFSKSLAREVASRGITVNVVAPGFIETDMTRALSDDQRAGILAQVPAGRLGGAQEIANAVAFQASDEAAYITGETLHVNGGMYMV
B4: accA V196Q (protein)
chain: MSLNFLDFEQPIAELEAKIDSLTAVSRQDEKLDINIDEEVHRLREKSVELTRKIFADLGAWQIAQLARHPQRPYTLDYVRLAFDEFDELAGDRAYADDKAIVGGIARLDGRPVMIIGHQKGRETKEKIRRNFGMPAPEGYRKALRLMQMAERFKMPIITFIDTPGAYPGVGAEERGQSEAIARNLREMSRLGVPVQCTVIGEGGSGGALAIGVGDKVNMLQYSTYSVISPEGCASILWKSADKAPLAAEAMGIIAPRLKELKLIDSIIPEPLGGAHRNPEAMAASLKAQLLADLADLDVLSTEDLKNRRYQRLMSYGYA
B5: argA L59Q (protein)
chain: MVKERKTELVEGFRHSVPYINTHRGKTFVIMLGGEAIEHENFSSIVNDIGLLHSLGIRQVVVYGARPQIDANLAAHHHEPLYHKNIRVTDAKTLELVKQAAGTLQLDITARLSMSLNNTPLQGAHINVVSGNFIIAQPLGVDDGVDYCHSGRIRRIDEDAIHRQLDSGAIVLMGPVAVSVTGESFNLTSEEIATQLAIKLKAEKMIGFCSSQGVTNDDGDIVSELFPNEAQARVEAQEEKGDYNSGTVRFLRGAVKACRSGVRRCHLISYQEDGALLQELFSRDGIGTQIVMESAEQIRRATINDIGGILELIRPLEQQGILVRRSREQLEMEIDKFTIIQRDNTTIACAALYPFPEEKIGEMACVAVHPDYRSSSRGEVLLERIAAQAKQSGLSKLFVLTTRSIHWFQERGFTPVDIDLLPESKKQLYNYQRKSKVLMADLG
B6: argA L59P (protein)
chain: MVKERKTELVEGFRHSVPYINTHRGKTFVIMLGGEAIEHENFSSIVNDIGLLHSLGIRPVVVYGARPQIDANLAAHHHEPLYHKNIRVTDAKTLELVKQAAGTLQLDITARLSMSLNNTPLQGAHINVVSGNFIIAQPLGVDDGVDYCHSGRIRRIDEDAIHRQLDSGAIVLMGPVAVSVTGESFNLTSEEIATQLAIKLKAEKMIGFCSSQGVTNDDGDIVSELFPNEAQARVEAQEEKGDYNSGTVRFLRGAVKACRSGVRRCHLISYQEDGALLQELFSRDGIGTQIVMESAEQIRRATINDIGGILELIRPLEQQGILVRRSREQLEMEIDKFTIIQRDNTTIACAALYPFPEEKIGEMACVAVHPDYRSSSRGEVLLERIAAQAKQSGLSKLFVLTTRSIHWFQERGFTPVDIDLLPESKKQLYNYQRKSKVLMADLG
B7: argA M173A (protein)
chain: MVKERKTELVEGFRHSVPYINTHRGKTFVIMLGGEAIEHENFSSIVNDIGLLHSLGIRLVVVYGARPQIDANLAAHHHEPLYHKNIRVTDAKTLELVKQAAGTLQLDITARLSMSLNNTPLQGAHINVVSGNFIIAQPLGVDDGVDYCHSGRIRRIDEDAIHRQLDSGAIVLAGPVAVSVTGESFNLTSEEIATQLAIKLKAEKMIGFCSSQGVTNDDGDIVSELFPNEAQARVEAQEEKGDYNSGTVRFLRGAVKACRSGVRRCHLISYQEDGALLQELFSRDGIGTQIVMESAEQIRRATINDIGGILELIRPLEQQGILVRRSREQLEMEIDKFTIIQRDNTTIACAALYPFPEEKIGEMACVAVHPDYRSSSRGEVLLERIAAQAKQSGLSKLFVLTTRSIHWFQERGFTPVDIDLLPESKKQLYNYQRKSKVLMADLG

Biological target: Escherichia coli (laboratory strain)
Assay: barcode share on antibiotic plates over drug-free plates; higher = less susceptible
Conditions: antibiotic: carbenicillin; 2× MIC (3.1 µg/mL)
Experimental: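 A pool of E. coli strains, each edited to carry one amino-acid change in an essential protein, was grown for 48 h on minimal glucose agar with or without antibiotic; strain barcodes were sequenced; mean of two replicates.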

Protein | fold change of barcode share
B1 | 0.415 ± 0.21
B2 | 0.588 ± 0.2
B3 | 0.181 ± 0.074
B4 | 0.353 ± 0.12
B5 | 0.312 ± 0.069
B6 | 0.254 ± 0.051
B7 | 0.448 ± 0.15

Same assay, conditions: antibiotic: gentamicin; 2× MIC (MIC 0.45 µg/mL)

Protein | fold change of barcode share
B2 | 0.171 ± 0.21
B3 | < 0.0181
B4 | < 0.00258
B5 | 0.00927 ± 0.0035
B6 | 0.00757 ± 0.0056
B7 | 0.00921 ± 0.0043
